# In the supplement of paper PMC8728848:
# Some of the results follow.
# B1: PV12658A-bvu-496-32-496 (Bacteroides vulgatus) (protein)
# chain: DLDGAITTPAAVELALNGIYYSLPGNGFNVIFPTVSGSFKAGTMWRQEIVSAGNAVYYSERMLPTLSFSDATEWDADYAVIKNANFLETACNRMSDGEFSGNRRAEVLGEIAYLRALAYFNILVRYCEFWDMNSEYGVVMRNEAPSVSNALKARSSVADSYQYILDQLEIAIEKAPDWKKLSQASKEAAKALKARVLLYAGKYTEAVAAVNDAIDTNSPLPEANYGDVFDKFSTTKEILFARVFDQKDATNTSTRQQCYGNSPTKKQGYWGPTNEYVELVGDDPRADAIFSKVDSLMDSRSSAVAYNLKSVKKLLNDANDMPVIFSRVSELYLIKAEALYRSGASISEAYAPIRKLRERAGAEIILPANNEELETAIFNEWMLELSFENWHEWFAMIRFAGYTEKPDFTRLLALNKTLREALEKEYEKSEAQGDNYYQRIIDRRIDAIPSSEISSNLECKQNPGY
# What was measured:
# Assay in all cases: glycan array binding signal (z-score within array); higher = stronger binding
# Conditions in all cases: glycan notation: IUPAC condensed, linker removed
# Gal6S(b1-4)Glc6S = target: Gal6S(b1-4)Glc6S
# Method in brief: (§1)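 Glycan array binding is given as a within-array Z-score, which can be read as non-binding when negative. The arrays, 3228 of them, came from the Consortium for Functional Glycomics database and were retained only where the protein sequence was available. Z-scores were averaged across arrays of the same protein sequence at different concentrations or buffers and across linkers.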
# Gal6S(b1-4)GlcNAc = target: Gal6S(b1-4)GlcNAc
# Method in brief: as §1
# Gal6S(b1-4)GlcNAc6S = target: Gal6S(b1-4)GlcNAc6S
# Method in brief: as §1
# GalNAc(a1-3)Gal = target: GalNAc(a1-3)Gal
# Method in brief: as §1
# GalNAc(a1-3)GalNAc = target: GalNAc(a1-3)GalNAc
# Method in brief: as §1
# [1] = target: GalNAc(a1-3)GalNAc(b1-3)Gal(a1-4)Gal(b1-4)Glc
# Method in brief: as §1
# [2] = target: GalNAc(a1-3)GalNAc(b1-3)Gal(a1-4)Gal(b1-4)GlcNAc
# Method in brief: as §1
# GalNAc(b1-3)Gal = target: GalNAc(b1-3)Gal
# Method in brief: as §1
# [3] = target: GalNAc(b1-3)Gal(a1-4)Gal(b1-4)GlcNAc
# Method in brief: as §1
# [4] = target: GalNAc(b1-3)Gal(a1-4)Gal(b1-4)GlcNAc(b1-3)Gal(b1-4)Glc
# Method in brief: as §1
# [5] = target: GalNAc(b1-3)Gal(a1-6)Gal(b1-4)Glc
# Method in brief: as §1
# GalNAc(b1-3)GalNAc = target: GalNAc(b1-3)GalNAc
# Method in brief: as §1
# GalNAc(b1-3)GlcNAc = target: GalNAc(b1-3)GlcNAc
# Method in brief: as §1
# GalNAc(b1-4)Gal(b1-4)Glc = target: GalNAc(b1-4)Gal(b1-4)Glc
# Method in brief: as §1
# GalNAc(b1-4)GlcNAc = target: GalNAc(b1-4)GlcNAc
# Method in brief: as §1
# [6] = target: GalNAc(b1-4)GlcNAc(b1-2)Man
# Method in brief: as §1
# [7] = target: GalNAc(b1-4)GlcNAc(b1-2)Man(a1-3)[GalNAc(b1-4)GlcNAc(b1-2)Man(a1-6)]Man(b1-4)GlcNAc(b1-4)GlcNAc
# Method in brief: as §1
# [8] = target: GalNAc(b1-4)GlcNAc(b1-3)GalNAc(b1-4)GlcNAc
# Method in brief: as §1
# GalNAc(b1-4)GlcNAc6S = target: GalNAc(b1-4)GlcNAc6S
# Method in brief: as §1
# GalNAc(b1-6)GalNAc = target: GalNAc(b1-6)GalNAc
# Method in brief: as §1
# GalNAc3S(b1-4)GlcNAc = target: GalNAc3S(b1-4)GlcNAc
# Method in brief: as §1
# GalNAc3S(b1-4)GlcNAc3S = target: GalNAc3S(b1-4)GlcNAc3S
# Method in brief: as §1
# [9] = target: GalNAc3S(b1-4)[Fuc(a1-3)]GlcNAc
# Method in brief: as §1
# GalNAc4S6S(b1-4)GlcNAc = target: GalNAc4S6S(b1-4)GlcNAc
# Method in brief: as §1
# GalNAc6S(b1-4)GlcNAc = target: GalNAc6S(b1-4)GlcNAc
# Method in brief: as §1
# Glc(a1-4)Glc = target: Glc(a1-4)Glc
# Method in brief: as §1
# [10] = target: Glc(a1-4)Glc(a1-4)Glc(a1-4)Glc
# Method in brief: as §1
# Glc(a1-6)Glc(a1-6)Glc = target: Glc(a1-6)Glc(a1-6)Glc
# Method in brief: as §1
# [11] = target: Glc(a1-6)Glc(a1-6)Glc(a1-6)Glc
# Method in brief: as §1
# Glc(b1-4)Glc = target: Glc(b1-4)Glc
# Method in brief: as §1
# Glc(b1-6)Glc = target: Glc(b1-6)Glc
# Method in brief: as §1
# GlcA(b1-3)Gal = target: GlcA(b1-3)Gal
# Method in brief: as §1
# GlcA(b1-3)GlcNAc = target: GlcA(b1-3)GlcNAc
# Method in brief: as §1
# GlcA(b1-6)Gal = target: GlcA(b1-6)Gal
# Method in brief: as §1
# [12] = target: GlcA3S(b1-3)Gal(b1-4)GlcNAc(b1-2)Man
# Method in brief: as §1
# [13] = target: GlcA3S(b1-3)Gal(b1-4)GlcNAc(b1-3)Gal(b1-4)Glc
# Method in brief: as §1
# [14] = target: GlcNAc(a1-3)Gal(b1-4)GlcNAc
# Method in brief: as §1
# [15] = target: GlcNAc(a1-4)Gal(b1-3)GlcNAc
# Method in brief: as §1
# [16] = target: GlcNAc(a1-4)Gal(b1-4)GalNAc
# Method in brief: as §1
# [17] = target: GlcNAc(a1-4)Gal(b1-4)GlcNAc
# Method in brief: as §1
# [18] = target: GlcNAc(a1-4)Gal(b1-4)GlcNAc(b1-3)Gal(b1-4)Glc
# Method in brief: as §1
# [19] = target: GlcNAc(a1-4)Gal(b1-4)GlcNAc(b1-3)Gal(b1-4)GlcNAc
# Method in brief: as §1
# [20] = target: GlcNAc(a1-4)Gal(b1-4)GlcNAc(b1-3)Gal(b1-4)GlcNAc(b1-3)Gal(b1-4)GlcNAc
# Method in brief: as §1
# [21] = target: GlcNAc(a1-4)Gal(b1-4)GlcNAc(b1-3)Gal(b1-4)[Fuc(a1-3)]GlcNAc(b1-3)Gal(b1-4)[Fuc(a1-3)]GlcNAc
# Method in brief: as §1
# [22] = target: GlcNAc(a1-6)Gal(b1-4)GlcNAc
# Method in brief: as §1
binder,measurement,setting,value
B1,glycan array binding signal (z-score),Gal6S(b1-4)Glc6S,-0.065
same,glycan array binding signal (z-score),Gal6S(b1-4)GlcNAc,-0.232
same,glycan array binding signal (z-score),Gal6S(b1-4)GlcNAc6S,0.339
same,glycan array binding signal (z-score),GalNAc(a1-3)Gal,-0.086
same,glycan array binding signal (z-score),GalNAc(a1-3)GalNAc,-0.179
same,glycan array binding signal (z-score),[1],-0.265
same,glycan array binding signal (z-score),[2],-0.573
same,glycan array binding signal (z-score),GalNAc(b1-3)Gal,-0.229
same,glycan array binding signal (z-score),[3],-0.363
same,glycan array binding signal (z-score),[4],-0.376
same,glycan array binding signal (z-score),[5],-0.362
same,glycan array binding signal (z-score),GalNAc(b1-3)GalNAc,-0.286
same,glycan array binding signal (z-score),GalNAc(b1-3)GlcNAc,-0.196
same,glycan array binding signal (z-score),GalNAc(b1-4)Gal(b1-4)Glc,-0.027
same,glycan array binding signal (z-score),GalNAc(b1-4)GlcNAc,0.829
same,glycan array binding signal (z-score),[6],-0.439
same,glycan array binding signal (z-score),[7],0.149
same,glycan array binding signal (z-score),[8],-0.422
same,glycan array binding signal (z-score),GalNAc(b1-4)GlcNAc6S,-0.208
same,glycan array binding signal (z-score),GalNAc(b1-6)GalNAc,-0.407
same,glycan array binding signal (z-score),GalNAc3S(b1-4)GlcNAc,-0.329
same,glycan array binding signal (z-score),GalNAc3S(b1-4)GlcNAc3S,-0.241
same,glycan array binding signal (z-score),[9],-0.287
same,glycan array binding signal (z-score),GalNAc4S6S(b1-4)GlcNAc,-0.376
same,glycan array binding signal (z-score),GalNAc6S(b1-4)GlcNAc,-0.216
same,glycan array binding signal (z-score),Glc(a1-4)Glc,-0.397
same,glycan array binding signal (z-score),[10],0.691
same,glycan array binding signal (z-score),Glc(a1-6)Glc(a1-6)Glc,-0.573
same,glycan array binding signal (z-score),[11],-0.006
same,glycan array binding signal (z-score),Glc(b1-4)Glc,-0.361
same,glycan array binding signal (z-score),Glc(b1-6)Glc,-0.36
same,glycan array binding signal (z-score),GlcA(b1-3)Gal,-0.408
same,glycan array binding signal (z-score),GlcA(b1-3)GlcNAc,-0.205
same,glycan array binding signal (z-score),GlcA(b1-6)Gal,-0.459
same,glycan array binding signal (z-score),[12],-0.329
same,glycan array binding signal (z-score),[13],-0.236
same,glycan array binding signal (z-score),[14],-0.069
same,glycan array binding signal (z-score),[15],-0.345
same,glycan array binding signal (z-score),[16],-0.111
same,glycan array binding signal (z-score),[17],0.968
same,glycan array binding signal (z-score),[18],0.68
same,glycan array binding signal (z-score),[19],3.04
same,glycan array binding signal (z-score),[20],0.219
same,glycan array binding signal (z-score),[21],0.093
same,glycan array binding signal (z-score),[22],-0.379
